{"source": "PubChem BioAssay AID1030", "about": "(National Center for Advancing Translational Sciences (NCATS), 2008)", "note": "About 16,000 (7.3%) of roughly 220,000 compounds were called active. Inconclusive means that the source gave no clear call. Such entries were picked first, then a sample of the others. Calls come from the whole dose curve; as a rule, active = well fitted inhibition curve with a large enough effect (not every such curve was filed as active); inconclusive = small, poorly fitted or top-dose-only effect, or another doubt; inactive = no such curve, though single readings can be large or run the other way. Potencies of inconclusive entries are left out as doubtful fits. Potency is the fitted concentration of half-maximal effect; tags give direction and shape of the fitted curve."}
{"biological_target": "Aldehyde dehydrogenase 1A1 (Homo sapiens) (UniProt P00352)", "sequence (P00352 whole entry, looked up)": "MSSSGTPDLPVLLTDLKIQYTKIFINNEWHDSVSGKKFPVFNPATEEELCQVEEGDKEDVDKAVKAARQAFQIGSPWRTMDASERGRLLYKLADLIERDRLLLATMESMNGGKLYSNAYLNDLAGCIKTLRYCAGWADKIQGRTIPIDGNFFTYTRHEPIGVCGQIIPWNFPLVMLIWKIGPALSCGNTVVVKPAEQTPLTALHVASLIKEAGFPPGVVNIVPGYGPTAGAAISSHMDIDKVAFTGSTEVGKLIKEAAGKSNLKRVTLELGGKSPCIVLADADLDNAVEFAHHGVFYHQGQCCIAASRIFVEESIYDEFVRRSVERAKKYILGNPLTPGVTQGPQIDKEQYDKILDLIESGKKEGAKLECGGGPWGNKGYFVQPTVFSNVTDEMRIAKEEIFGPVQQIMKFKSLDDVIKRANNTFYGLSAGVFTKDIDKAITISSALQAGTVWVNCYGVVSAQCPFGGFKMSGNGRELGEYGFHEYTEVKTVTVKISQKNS", "test": "qHTS Assay for Inhibitors of Aldehyde Dehydrogenase 1 (ALDH1A1);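 for activity, negative = inhibition: plate controls were no enzyme wells and a reference inhibitor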", "settings": "Purified ALDH1A1, NADH fluorescence, propionaldehyde substrate; series mostly up to 75.3 µM"}
{"smiles": "Cc1cccc(/C=N/NC(=O)c2ccc(Br)cc2)c1", "Potency": "inactive"}
{"smiles": "CCOC(=O)c1cc2sccc2n1CCCN1C(=O)c2ccccc2C1=O", "Potency": "inconclusive [inhibitor, single point]"}
{"smiles": "Cc1ccc(C(=O)Oc2ccc(C(=O)COC(=O)C3CC(=O)N(Cc4ccco4)C3)cc2)cc1", "note": "(stereo unspecified)", "Potency": "active: 25.1 µM"}
{"smiles": "CC(=O)Nc1sc2c(c1C#N)CCCCC2", "Potency": "inconclusive [inhibitor, single point]"}
{"smiles": "CCCCCNc1nc(-c2ccccc2)cs1", "Potency": "inconclusive [inhibitor, single point]"}
{"smiles": "Cc1ccc(C(=O)C[n+]2ccc(Cc3ccccc3)cc2)cc1", "Potency": "inconclusive [inhibitor, partial curve]"}
{"smiles": "Cc1ccc(-n2c3c(c(=O)[nH]c2=O)C(NS(=O)(=O)c2ccc(Cl)cc2)(C(F)(F)F)C(=O)N3)cc1", "note": "(stereo unspecified)", "Potency": "inactive"}
{"smiles": "O=C1c2ccccc2NC(c2ccc(O)cc2)N1Cc1ccco1", "note": "(stereo unspecified)", "Potency": "inconclusive [inhibitor, partial curve]"}
{"smiles": "O=C(c1cc2nc(-c3ccco3)cc(C(F)(F)F)n2n1)N1CCc2ccccc2C1", "Potency": "inconclusive [inhibitor, partial curve]"}
{"smiles": "O=C(CN1CCCCC1)Nc1ccc(NC(=O)c2ccc(Cl)cc2)cc1Cl", "Potency": "inconclusive [inhibitor, single point]"}
{"smiles": "Cc1ccc(O)c(NC(=O)CCC2CCCCC2)c1", "Potency": "inactive"}
{"smiles": "Cc1c([N+](=O)[O-])c([N+](=O)[O-])nn1CC(=O)N1CCOCC1", "Potency": "inactive"}
{"smiles": "O=c1c(-c2ccc(F)cc2)coc2cc(O)ccc12", "Potency": "inconclusive [inhibitor, single point]"}
{"smiles": "Cc1ccc(N(CC(O)Cn2nc(C)cc2C)S(=O)(=O)c2ccc3ccccc3c2)cc1", "note": "(stereo unspecified)", "Potency": "inconclusive [inhibitor, single point]"}
{"smiles": "c1ccc(-c2csc3ncn4nnnc4c23)cc1", "Potency": "inconclusive [inhibitor, single point]"}
{"smiles": "c1coc(-c2nnc3n2C2(CCCC2)Cc2ccccc2-3)c1", "Potency": "inactive"}
{"smiles": "O=C1C2CC=CCC2C(=O)N1c1n[nH]c(-c2ccccc2)n1", "note": "(stereo unspecified)", "Potency": "inactive"}
{"smiles": "Cc1ccc(S(=O)(=O)CNC(=O)c2ccccc2)cc1", "Potency": "inconclusive [inhibitor, single point]"}
{"smiles": "COCCNC(=S)N/N=C(\\C)c1ccc(Cl)c(Cl)c1Cl", "Potency": "inactive"}
{"smiles": "Cc1cc(NC(=O)Cn2c(=O)c3c(ncn3CC(C)C)n(Cc3ccccc3)c2=O)no1", "Potency": "inconclusive [inhibitor, single point]"}
{"smiles": "CCCn1c(/C=C/c2ccccc2)nc2ccccc21", "Potency": "inconclusive [inhibitor, partial curve]"}
{"smiles": "COc1cccc(C(=O)Nc2cccc(OC(C)=O)c2)c1", "Potency": "inconclusive [inhibitor, single point]"}
{"smiles": "Cc1ccc(NC(=O)Nc2cccc(C(F)(F)F)c2)nc1", "Potency": "inactive"}
{"smiles": "COc1ccc(Cn2c(=O)[nH]c3cc(C(=O)N4CCN(Cc5ccccc5)CC4)ccc3c2=O)cc1", "Potency": "inconclusive [inhibitor, single point]"}
{"smiles": "COc1ccc(NS(=O)(=O)c2ccc3oc(SCc4ccc(F)cc4)nc3c2)cc1", "Potency": "inconclusive [inhibitor, single point]"}
{"smiles": "CCn1c(/C=N/n2cnnc2)nc2ccccc21", "Potency": "inconclusive [inhibitor, single point]"}
{"smiles": "CCOCCn1c(=NC(=O)c2cc3ccccc3oc2=O)sc2cc(S(N)(=O)=O)ccc21", "Potency": "inconclusive [inhibitor, partial curve, poor fit]"}
{"smiles": "O=C(NCc1ccco1)c1ccc2c(=O)n(Cc3ccco3)c(SCC(=O)N3CCCC3)nc2c1", "Potency": "inconclusive [inhibitor, partial curve]"}
{"smiles": "O=C(Oc1ccccc1)N1CCC2(CC1)CN(c1ccccn1)C2", "Potency": "inconclusive [inhibitor, single point]"}
{"smiles": "O=C(Nc1cc([N+](=O)[O-])ccc1F)C1CC1", "Potency": "inactive"}
{"smiles": "CC1N(C)c2cc(NC(=O)c3cccs3)c(P(=O)(Nc3ccc([N+](=O)[O-])cc3)N3CCOCC3)cc2C1(C)C", "note": "(stereo unspecified)", "Potency": "inactive"}
{"smiles": "C/C(=N\\NC(=S)NCCc1ccccc1)c1ccc(C)cc1", "Potency": "inactive"}
{"smiles": "COCc1ccc2oc(C(=O)O)cc2c1", "Potency": "inactive"}
{"smiles": "Cc1nn(-c2ccccc2)c(N)c1Sc1ccc([N+](=O)[O-])cc1", "Potency": "active: 1.41 µM"}
{"smiles": "Cc1cc(CCCCCCCCc2cc(C)cc(=O)o2)oc(=O)c1", "Potency": "inactive"}
{"smiles": "CCc1ccc(NC(=S)N2CCNC(=O)C2CC(=O)OC)cc1", "note": "(stereo unspecified)", "Potency": "inactive"}
{"smiles": "CCOC(=O)N1CCN(C(=O)COc2ccccc2[N+](=O)[O-])CC1", "Potency": "inactive"}
{"smiles": "COc1ccc(NC(=S)N2CCN(C(=O)c3ccccc3)CC2)cc1", "Potency": "inconclusive [inhibitor, partial curve]"}
{"smiles": "O=c1c[n+](CC[n+]2cc(=O)o[nH]2)[nH]o1", "activity, negative = inhibition": "inactive: -0.656% [at 13.5 µM]"}
{"smiles": "O=C1N/C(=C/c2cccn2-c2ccc(F)cc2)C(=O)N1Cc1ccccc1F", "Potency": "inconclusive [inhibitor, partial curve]"}
{"smiles": "CCCn1c2ccc(F)cc2c2nnc(NN)nc21", "Potency": "active: 4.47 µM"}
{"smiles": "CC(C)N(Cc1nc(-c2ccc(Cl)cc2)no1)C(=O)CN(C)S(=O)(=O)c1ccc(Cl)cc1", "Potency": "inconclusive [inhibitor, single point]"}
{"smiles": "c1ccc(CSc2nnc(-c3ccco3)c(-c3ccco3)n2)cc1", "Potency": "active: 2.82 µM"}
{"smiles": "O=C(NCCc1c[nH]c2ccccc12)C(F)(F)F", "Potency": "inactive"}
{"smiles": "COC(=O)CNC(=O)[C@@]1(C)C=C[C@@H](Cc2ccccc2)N1C(C)=O", "Potency": "active: 22.4 µM"}
{"smiles": "O=c1cc(CSc2ccccn2)[nH]c(=O)[nH]1", "Potency": "inconclusive [inhibitor, single point]"}
{"smiles": "C=CCC1CCCC(=O)N2CC[C@H](O)C12", "note": "(stereo partly specified)", "Potency": "inactive"}
{"smiles": "CCCCn1c(N)c(C(=S)NC(=O)CC(C)C)c(=O)n(C)c1=O", "Potency": "inactive"}
{"smiles": "Cc1cc(C)c2c(=O)[nH]n(C(C)C)c2n1", "Potency": "inconclusive [inhibitor, single point]"}
{"smiles": "O=C1CN(C(=O)CSc2nc(-c3ccc(Cl)cc3)cs2)c2ccccc2N1", "Potency": "inactive"}
{"smiles": "CC(=O)/C(=N\\Nc1ccc(C)cc1)Sc1nncn1C", "Potency": "inconclusive [inhibitor, single point]"}
{"smiles": "CCCCn1c(NCc2ccccn2)nc2ccccc21", "Potency": "inconclusive [inhibitor, single point]"}
{"smiles": "CN1CCCN(Cc2ccc(Cl)cc2Cl)CC1", "Potency": "inconclusive [inhibitor, partial curve]"}
{"smiles": "CC(NC(=O)COC(=O)C1CCN(S(=O)(=O)c2ccccc2C(F)(F)F)CC1)c1ccccc1", "note": "(stereo unspecified)", "Potency": "inconclusive [inhibitor, single point]"}
{"smiles": "Cc1cc(-c2ccc(F)cc2)nc2cc(C(N)=O)nn12", "Potency": "inconclusive [inhibitor, partial curve]"}
{"smiles": "COc1cc(OC)c(OC)cc1CNc1cc(C)ccc1OC", "Potency": "inactive"}
{"smiles": "Clc1ccc(/C=C\\c2nccc3c2[nH]c2ccccc23)cc1", "Potency": "inconclusive [inhibitor, partial curve]"}
{"smiles": "CC(C)(C)c1cnnn1-c1ccc(-c2csc(N)n2)cc1", "Potency": "active: 17.8 µM"}
{"smiles": "Cc1cccc(CNc2ccnc(-c3ccoc3)n2)c1", "Potency": "active: 12.6 µM"}
{"smiles": "CCCc1nc(SCC(=O)NNC(=O)c2ccc(OC)cc2)c2ccccc2n1", "Potency": "inactive"}
{"smiles": "Cc1cc(C)cc(NC(=O)CSc2nnc(Cc3cccn3C)n2-c2ccc(F)cc2)c1", "Potency": "inconclusive [inhibitor, single point]"}
{"smiles": "Nc1c(C(=O)Nc2ccc(Cl)cc2)oc2ccccc12", "Potency": "inconclusive [inhibitor, partial curve]"}
{"smiles": "O=C(c1ccco1)N1CCN(S(=O)(=O)c2ccc3c(c2)OCCO3)CC1", "Potency": "inactive"}
{"smiles": "COc1cc(-c2[o+]c3cc(O)cc(O)c3cc2O)cc(O)c1O", "activity, negative = inhibition": "inactive: 6.48% [at 13.5 µM]"}
{"smiles": "O=C(Nc1ccc(/C=C/c2nc3ccccc3o2)cc1)c1c(F)cccc1F", "Potency": "inconclusive [inhibitor, single point]"}
{"smiles": "COc1ccc(NC(=S)NC(NC(=O)c2cccc(Cl)c2)C(Cl)(Cl)Cl)c([N+](=O)[O-])c1", "note": "(stereo unspecified)", "Potency": "active: 17.8 µM"}
{"smiles": "COC(=O)c1ccc(OC(=O)c2ccccn2)cc1", "Potency": "inactive"}
{"smiles": "CC(=O)OCC(=O)[C@@]1(OC(C)=O)[C@H](C)C[C@H]2[C@@H]3C[C@H](F)C4=CC(=O)C=C[C@@]4(C)[C@]3(F)[C@H](O)C[C@@]21C", "Potency": "inactive"}
{"smiles": "CCNc1ncc2nc(-c3cccs3)c(=O)n(Cc3cccc(OC)c3)c2n1", "Potency": "inconclusive [inhibitor, partial curve]"}
{"smiles": "C=CCn1c(SCC(=O)Nc2ccc3c(c2)OCCO3)nnc1-c1ccccn1", "Potency": "inconclusive [inhibitor, single point]"}
{"smiles": "Cc1cccc(C(=O)N2CCN(c3ccc(C(F)(F)F)cn3)CC2)c1C", "Potency": "inactive"}
{"smiles": "COc1ccc(Nc2cc(C(=O)NCCCN3CCN(C)CC3)c3ccccc3n2)cc1OC", "Potency": "inconclusive [inhibitor, single point]"}
{"smiles": "O=C(CN1CCN(c2ccccn2)CC1)Nc1ccc(Oc2ccccc2)cc1", "Potency": "active: 25.1 µM"}
{"smiles": "COc1ccc(C=O)cc1COc1ccc(F)cc1F", "Potency": "active: 8.91 µM"}
{"smiles": "O=C1C(=O)c2ccccc2C(O)=C1C(CCc1ccccc1)C1=C(O)c2ccccc2C(=O)C1=O", "Potency": "inconclusive [inhibitor, single point]"}
{"smiles": "O=C(/C=C/c1ccco1)Nc1ccccc1C(=O)O", "Potency": "inactive"}
